Each structure is given as a SMILES string. The whole screen tested about 310,000 compounds, of which about 14,000 (4.5%) showed an effect of 50% or more. The effect is printed as a negative number. The list shows a part of the results.

These results are taken from article PMC4336329 (PLoS ONE, 2015).
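Also: peak tail current of the secondary pulse compared with the same well before compound.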

Sequence of human ether-à-go-go-related gene (hERG) potassium channel (Q12809 whole entry, looked up): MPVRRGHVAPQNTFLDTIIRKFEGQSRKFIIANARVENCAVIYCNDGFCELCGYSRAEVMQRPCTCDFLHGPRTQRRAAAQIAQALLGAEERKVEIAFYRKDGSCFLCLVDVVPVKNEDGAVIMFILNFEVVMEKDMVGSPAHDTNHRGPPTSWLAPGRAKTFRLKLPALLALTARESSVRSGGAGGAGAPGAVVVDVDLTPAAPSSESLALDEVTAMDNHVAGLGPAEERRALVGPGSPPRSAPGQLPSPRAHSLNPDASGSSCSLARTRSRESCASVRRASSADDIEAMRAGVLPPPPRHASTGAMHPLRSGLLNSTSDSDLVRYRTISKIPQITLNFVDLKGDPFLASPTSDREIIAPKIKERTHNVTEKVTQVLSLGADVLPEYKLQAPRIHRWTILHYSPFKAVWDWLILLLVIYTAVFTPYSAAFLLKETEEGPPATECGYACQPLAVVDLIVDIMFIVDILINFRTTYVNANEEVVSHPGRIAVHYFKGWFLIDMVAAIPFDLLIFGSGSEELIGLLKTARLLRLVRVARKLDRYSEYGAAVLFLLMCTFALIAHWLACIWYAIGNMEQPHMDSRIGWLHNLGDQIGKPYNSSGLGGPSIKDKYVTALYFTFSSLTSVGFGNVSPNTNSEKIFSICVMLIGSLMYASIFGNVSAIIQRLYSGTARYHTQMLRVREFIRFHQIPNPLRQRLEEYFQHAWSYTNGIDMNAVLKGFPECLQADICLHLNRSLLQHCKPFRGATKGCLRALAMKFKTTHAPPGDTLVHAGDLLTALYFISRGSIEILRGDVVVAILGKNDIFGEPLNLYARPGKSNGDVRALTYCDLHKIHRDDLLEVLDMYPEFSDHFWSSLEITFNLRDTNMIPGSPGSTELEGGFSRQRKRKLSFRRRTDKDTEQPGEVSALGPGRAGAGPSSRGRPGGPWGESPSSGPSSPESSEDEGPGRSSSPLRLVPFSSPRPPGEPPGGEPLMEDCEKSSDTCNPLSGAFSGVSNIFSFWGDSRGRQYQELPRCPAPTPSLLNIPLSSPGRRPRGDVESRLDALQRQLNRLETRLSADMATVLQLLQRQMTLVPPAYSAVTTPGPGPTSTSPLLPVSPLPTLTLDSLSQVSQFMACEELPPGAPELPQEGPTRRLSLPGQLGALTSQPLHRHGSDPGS

This assay concerns the target human ether-à-go-go-related gene (hERG) potassium channel (human, UniProt Q12809). The experiment in a line: primary screen, population patch clamp on CHO cells stably expressing hERG.
For `Cc1nc2ccccc2c(=O)n1/N=C/c1ccc(O)cc1`, the “hERG current change (%, negative = inhibition) at 10uM” value is reported as 10.9%. `COc1cc(Cl)c(C)cc1NC(=S)NN`: the “hERG current change (%, negative = inhibition) at 10uM” value came to 16.7%. `CCOC(=O)/C(=C/c1ccco1)NC(=O)c1ccc(Br)o1`: the “hERG current change (%, negative = inhibition) at 10uM” value is on record as 1.52%. The same measure for `COc1ccc(-c2cccc(C(=O)Nc3ccccc3C)c2)cc1`: -9.12%; for `Cc1ccc(-c2csc3nnc(SCc4csc(C)n4)n23)cc1`: -23.7%.

For the compound `CN(C)C(CNC(=O)NC1CCCCC1)c1cccnc1` (centres unmarked), the “hERG current change (%, negative = inhibition) at 10uM” value was 11.5%. Turning to `CCC(=O)N1CC2(CC(c3cccc([N+](=O)[O-])c3)=NO2)C[C@H]1C(=O)NCC(N)=O` (some centres unmarked), the “hERG current change (%, negative = inhibition) at 10uM” value stood at 9.53%. As for `Cc1cccc(-c2nnc3n2N=C(c2ccccc2Br)CS3)c1`, the “hERG current change (%, negative = inhibition) at 10uM” value is recorded as -14.4%. Regarding `Cc1nc2c(-c3ccc(F)cc3)c(C)nn2c(C)c1CCC(=O)N1CCN(c2ccc(F)cc2)CC1`, the “hERG current change (%, negative = inhibition) at 10uM” value is -74.6%. As for `COc1ccccc1N=Nc1ccc(N)c(C)c1`, the “hERG current change (%, negative = inhibition) at 10uM” value is listed as 10.1%. In the case of `CC(Oc1ccc(Br)cc1)C(=O)Nc1cc(Cl)ccc1N1CCN(C)CC1` (centres unmarked), the “hERG current change (%, negative = inhibition) at 10uM” value was -12.6%.

For `Cc1ccccc1NC(=S)NC(=O)COc1ccccc1C`, the “hERG current change (%, negative = inhibition) at 10uM” value came to 12.2%. For `COCCNC(=O)c1ccc(CS(=O)(=O)c2ccc(OC)cc2)o1`, the “hERG current change (%, negative = inhibition) at 10uM” value is listed as -0.154%. The same measure for `C=C1CCN(Cc2ccccc2)S(=O)(=O)c2ccccc21`: -23.4%; for `Cc1cc(/C=C(\C#N)C(=O)O)c(C)n1CC1CCCO1` (centres unmarked): 23.8%; for `CC1(C)CC(=O)C=C(NNC(=O)C2CCCCC2)C1`: 8.47%. Regarding `C=CCN(C(=O)CSc1nc2ccsc2c(=O)n1Cc1ccccn1)c1ccccc1`, the “hERG current change (%, negative = inhibition) at 10uM” value is listed as -19.4%.

Regarding `CC(C)(O)C#Cc1ccc(CN2CCCC(CNC(=O)c3ccco3)C2)cc1` (centres unmarked), the “hERG current change (%, negative = inhibition) at 10uM” value was -10.9%. On to `Cc1ccccc1-n1nc(C)c2c1N=C1C(Cl)=CC(Cl)=CN1C2c1ccc(C(=O)O)cc1` (centres unmarked), for which the “hERG current change (%, negative = inhibition) at 10uM” value is 11.9%. With `Oc1c(Cl)cc(Cl)cc1/C=C/c1ccc2cccc(O)c2n1`, the “hERG current change (%, negative = inhibition) at 10uM” value came to 18.1%. On to `CCOc1ccc(N/C=C/C(=O)c2ccc(OC)cc2)cc1`, for which the “hERG current change (%, negative = inhibition) at 10uM” value is given as -5.92%. The same measure for `CC(=O)OCC1(C)CN(c2ccccc2)N(C(=O)c2ccc(F)cc2)C1=O` (centres unmarked): -0.0352%; for `CCC(C)(C)n1nnnc1CN1CCc2ccccc21`: 3.74%. Turning to `CCN(CCn1cccn1)Cc1c(C(=O)N2CCCCCCC2)nc2ccc(Cl)cn12`, the “hERG current change (%, negative = inhibition) at 10uM” value is -32.4%. With `Cc1c(C(=O)Oc2cccc3cccnc23)cccc1[N+](=O)[O-]`, the “hERG current change (%, negative = inhibition) at 10uM” value is listed as 4.51%. In the case of `CS(=O)(=O)c1nncn1-c1ccccc1`, the “hERG current change (%, negative = inhibition) at 10uM” value came to 17.5%. Consider `Cc1ccc(C)c(-c2cc(C(=O)Nc3nccs3)c3ccccc3n2)c1`, for which the “hERG current change (%, negative = inhibition) at 10uM” value is -8.77%. As to `CCOC(=O)CSc1nc2c(c(=O)n1-c1ccc(OC)cc1)SCC2`, the “hERG current change (%, negative = inhibition) at 10uM” value is -9.55%. On to `CCCc1cc(-c2n[nH]c(=S)n2C(C)c2ccccc2)cs1` (centres unmarked), for which the “hERG current change (%, negative = inhibition) at 10uM” value is 9.74%.

`Clc1ccc(CSc2nnnn2-c2ccc3c(c2)OCO3)c(Cl)c1`: the “hERG current change (%, negative = inhibition) at 10uM” value worked out at 2.12%.

On to `CCC1CCCCN1S(=O)(=O)c1ccc(NC(=O)c2ccncc2)cc1` (centres unmarked), for which the “hERG current change (%, negative = inhibition) at 10uM” value was -16.6%. Consider `Cc1cc(C)n(-c2ccc(C(=O)NCc3cccs3)cc2)n1`, for which the “hERG current change (%, negative = inhibition) at 10uM” value is reported as -39.2%. Turning to `Cc1[nH][nH]c(=O)c1C(c1ccc2c(c1)OCO2)c1c(C)[nH][nH]c1=O`, the “hERG current change (%, negative = inhibition) at 10uM” value amounted to 17.8%.

Regarding `CC(C)(C)c1ccc(-c2ccc3c(c2)S(=O)(=O)c2ccccc2C3=O)cc1`, the “hERG current change (%, negative = inhibition) at 10uM” value was determined as 15.9%. As to `COc1ccc2nc(NNC(=O)COc3ccccc3)sc2c1`, the “hERG current change (%, negative = inhibition) at 10uM” value is recorded as -2.64%. As to `Cc1ccc(C(C)(C)C)c(OCCN2CCCC2)c1`, the “hERG current change (%, negative = inhibition) at 10uM” value is on record as -19.5%. On to `N#Cc1cccc2c1-c1ccccc1/C2=N/NC(N)=S`, for which the “hERG current change (%, negative = inhibition) at 10uM” value is 5.21%. The same measure for `COc1cc(CC(=O)NNC(=O)c2cc(C)oc2C)cc(OC)c1OC`: 24.1%; for `COc1ccccc1N1N=C(c2cccs2)CC1c1ccccc1` (centres unmarked): 1.08%. For `O=C(Nc1ccc(S(=O)(=O)N2CCCC2)cc1)c1cnccn1`, the “hERG current change (%, negative = inhibition) at 10uM” value was 21.3%. The same measure for `CCCCn1c(O)c(C=NCCN2CCCCC2)c(=O)[nH]c1=O`: -2.31%; for `O=C(Cc1ccccc1[N+](=O)[O-])OCC(=O)c1c[nH]c2ccccc12`: -3.14%. The same measure for `CSc1nc2nc3c(c(=O)n2[nH]1)CCCC3`: 6.27%; for `CCOc1cccc2cc(C(=O)Nc3ccccc3-c3ccccc3)c(=O)oc12`: -12%; for `O=C(Nc1nnc(-c2ccc(Cl)cc2)o1)Nc1ccccc1F`: 1.31%.

For `CC1(C)CN=C(Nc2ccc(F)c(Cl)c2)S1`, the “hERG current change (%, negative = inhibition) at 10uM” value came to 3.15%. With `COc1cccc(N(Cc2nnc3n2CCCCC3)C(=O)Nc2ccccc2)c1`, the “hERG current change (%, negative = inhibition) at 10uM” value stood at 8.11%. `COc1ccc(C(=O)c2cnc(/N=C/N(C)C)s2)cc1`: the “hERG current change (%, negative = inhibition) at 10uM” value worked out at 5.1%. Consider `Cc1nn(C)cc1CNC(=O)Nc1ccc(Cl)c(Cl)c1`, for which the “hERG current change (%, negative = inhibition) at 10uM” value is 0.612%. The same measure for `Cc1ccc2c(C(=O)CCl)c(C)[nH]c2c1`: 1.22%. Consider `CCOc1ccc(Nc2ncnc3c2cnn3-c2ccccc2)cc1`, for which the “hERG current change (%, negative = inhibition) at 10uM” value is listed as 8.65%. As for `COc1ccc(C(=O)ON=C2C=C(C)C(=O)C(C)=C2)cc1`, the “hERG current change (%, negative = inhibition) at 10uM” value came to 1.65%. The same measure for `COc1ccc(Br)c(C(=O)NC(C)(C)CO)c1`: 8.72%; for `CC1=C(C(=O)OC2CCCCCCC2)C(c2cccc(O)c2)NC(=O)N1` (centres unmarked): -29.5%; for `N/C(=N\OC(=O)COc1ccc([N+](=O)[O-])cc1)c1ccncc1`: -6.75%. The same measure for `COCCN(C(=O)Cn1nnc2ccccc21)C(C(=O)NC1CCCC1)c1cccc(OC)c1OC` (centres unmarked): 5.93%. The same measure for `COc1ccc(N(CC(=O)Nc2ccc(C)c(C)c2)C2=NC3CS(=O)(=O)CC3S2)cc1` (centres unmarked): 12.3%. `CCCn1[nH]cc(SC)c(=O)c1=O`: the “hERG current change (%, negative = inhibition) at 10uM” value was -5.83%. The same measure for `COc1ccc(C(C)=O)cc1COC(=O)C(CO)NS(=O)(=O)c1ccc(Br)cc1` (centres unmarked): -0.0529%.
